Data as given in paper PMC12820563, “FoxP3 forms a head-to-head dimer in vivo and stabilizes its multimerization on adjacent microsatellites”.
Some of the results follow.

Target: T1, MBP-FoxP1dN (Mus musculus, UniProt P58462 326-579)
T1 sequence: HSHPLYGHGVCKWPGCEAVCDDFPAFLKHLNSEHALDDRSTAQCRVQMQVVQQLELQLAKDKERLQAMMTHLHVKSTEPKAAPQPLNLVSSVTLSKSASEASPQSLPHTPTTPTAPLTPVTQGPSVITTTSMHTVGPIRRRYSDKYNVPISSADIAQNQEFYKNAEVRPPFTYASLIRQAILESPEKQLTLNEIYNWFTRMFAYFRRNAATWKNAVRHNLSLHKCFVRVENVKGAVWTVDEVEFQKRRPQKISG
Assay: PD-seq (MBP pull-down with sequencing); 20 mM Tris-HCl pH 7.5, 100 mM NaCl, 1.5 mM MgCl2, 0.4 uM protein, 0.1 uM dsDNA library, 30 min, room temperature, amylose pull-down; high values mean tight binding
Conditions: protein: recombinant; tags: His6-MBP; chain copies: 2; dsDNA, one strand shown
Outline: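 His6-MBP-tagged mouse FoxP3 or FoxP1 fragment lacking the N-terminus, expressed in E. coli, was mixed at 0.4 µM with 0.1 µM Klenow-filled double-stranded degenerate DNA library. Incubation was 30 min at room temperature in Tris pH 7.5 buffer with NaCl and MgCl2. Complexes were caught on amylose resin and washed three times; DNA was released with proteinase K, PCR-barcoded and Illumina-sequenced. Binding is reads-per-million enrichment, pull-down over input, with replicates pooled.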

In order of rising binding signal:
1. GATGATTGTTCTCCCAGCTGATGAATTCTCTGAGTCGAGTAAACAAATTTTCCTAATCTTTCTGTTCAAGCGCCATCTAC  0.731 RPM ratio (pull-down/input)
2. GATGATTGTTCTCCCAGCTGATGAATTTCAGAGTTCGAGTAAACAAATTTTCCTAATCTTTCTGTTCAAGCGCCATCTAC  0.735 RPM ratio (pull-down/input)
3. GATGATTGTTCTCCCAGCTGATGAATTAGTTCGGTCGAGTAAACAAATTTTCCTAATCTTTCTGTTCAAGCGCCATCTAC  0.768 RPM ratio (pull-down/input)
4. GATGATTGTTCTCCCAGCTGATGAATTCGCGGGGTCGAGTAAACAAATTTTCCTAATCTTTCTGTTCAAGCGCCATCTAC  0.823 RPM ratio (pull-down/input)
5. GATGATTGTTCTCCCAGCTGATGAATTCCTGATCTCGAGTAAACAAATTTTCCTAATCTTTCTGTTCAAGCGCCATCTAC  0.831 RPM ratio (pull-down/input)
6. GATGATTGTTCTCCCAGCTGATGAATTCGAGGGTTCGAGTAAACAAATTTTCCTAATCTTTCTGTTCAAGCGCCATCTAC  0.844 RPM ratio (pull-down/input)
7. GATGATTGTTCTCCCAGCTGATGAATTCAGCAAGTCGAGTAAACAAATTTTCCTAATCTTTCTGTTCAAGCGCCATCTAC  0.853 RPM ratio (pull-down/input)
8. GATGATTGTTCTCCCAGCTGATGAATTCCCTCAATCGAGTAAACAAATTTTCCTAATCTTTCTGTTCAAGCGCCATCTAC  0.866 RPM ratio (pull-down/input)
9. GATGATTGTTCTCCCAGCTGATGAATTACTGCGGTCGAGTAAACAAATTTTCCTAATCTTTCTGTTCAAGCGCCATCTAC  0.866 RPM ratio (pull-down/input)
10. GATGATTGTTCTCCCAGCTGATGAATTTCAGATGTCGAGTAAACAAATTTTCCTAATCTTTCTGTTCAAGCGCCATCTAC  0.87 RPM ratio (pull-down/input)
11. GATGATTGTTCTCCCAGCTGATGAATTTCCTCTATCGAGTAAACAAATTTTCCTAATCTTTCTGTTCAAGCGCCATCTAC  0.876 RPM ratio (pull-down/input)
12. GATGATTGTTCTCCCAGCTGATGAATTCTATGAGTCGAGTAAACAAATTTTCCTAATCTTTCTGTTCAAGCGCCATCTAC  0.887 RPM ratio (pull-down/input)
13. GATGATTGTTCTCCCAGCTGATGAATTCGTACGCTCGAGTAAACAAATTTTCCTAATCTTTCTGTTCAAGCGCCATCTAC  0.894 RPM ratio (pull-down/input)
14. GATGATTGTTCTCCCAGCTGATGAATTAGTGGAGTCGAGTAAACAAATTTTCCTAATCTTTCTGTTCAAGCGCCATCTAC  0.894 RPM ratio (pull-down/input)
15. GATGATTGTTCTCCCAGCTGATGAATTTTTCACGTCGAGTAAACAAATTTTCCTAATCTTTCTGTTCAAGCGCCATCTAC  0.902 RPM ratio (pull-down/input)
16. GATGATTGTTCTCCCAGCTGATGAATTCATCATGTCGAGTAAACAAATTTTCCTAATCTTTCTGTTCAAGCGCCATCTAC  0.907 RPM ratio (pull-down/input)
17. GATGATTGTTCTCCCAGCTGATGAATTAACTTAGTCGAGTAAACAAATTTTCCTAATCTTTCTGTTCAAGCGCCATCTAC  0.912 RPM ratio (pull-down/input)
18. GATGATTGTTCTCCCAGCTGATGAATTCGTAGTTTCGAGTAAACAAATTTTCCTAATCTTTCTGTTCAAGCGCCATCTAC  0.913 RPM ratio (pull-down/input)
19. GATGATTGTTCTCCCAGCTGATGAATTATGCGGGTCGAGTAAACAAATTTTCCTAATCTTTCTGTTCAAGCGCCATCTAC  0.927 RPM ratio (pull-down/input)
20. GATGATTGTTCTCCCAGCTGATGAATTACGAGATTCGAGTAAACAAATTTTCCTAATCTTTCTGTTCAAGCGCCATCTAC  0.943 RPM ratio (pull-down/input)
21. GATGATTGTTCTCCCAGCTGATGAATTGTGCGGATCGAGTAAACAAATTTTCCTAATCTTTCTGTTCAAGCGCCATCTAC  0.959 RPM ratio (pull-down/input)
22. GATGATTGTTCTCCCAGCTGATGAATTTCATCACTCGAGTAAACAAATTTTCCTAATCTTTCTGTTCAAGCGCCATCTAC  0.969 RPM ratio (pull-down/input)
23. GATGATTGTTCTCCCAGCTGATGAATTATACTCGTCGAGTAAACAAATTTTCCTAATCTTTCTGTTCAAGCGCCATCTAC  0.984 RPM ratio (pull-down/input)
24. GATGATTGTTCTCCCAGCTGATGAATTCTCTACATCGAGTAAACAAATTTTCCTAATCTTTCTGTTCAAGCGCCATCTAC  0.988 RPM ratio (pull-down/input)
25. GATGATTGTTCTCCCAGCTGATGAATTACGGAATTCGAGTAAACAAATTTTCCTAATCTTTCTGTTCAAGCGCCATCTAC  1 RPM ratio (pull-down/input)
26. GATGATTGTTCTCCCAGCTGATGAATTGACGCGGTCGAGTAAACAAATTTTCCTAATCTTTCTGTTCAAGCGCCATCTAC  1.01 RPM ratio (pull-down/input)
27. GATGATTGTTCTCCCAGCTGATGAATTACTCCAGTCGAGTAAACAAATTTTCCTAATCTTTCTGTTCAAGCGCCATCTAC  1.03 RPM ratio (pull-down/input)
28. GATGATTGTTCTCCCAGCTGATGAATTATTTGATTCGAGTAAACAAATTTTCCTAATCTTTCTGTTCAAGCGCCATCTAC  1.05 RPM ratio (pull-down/input)
29. GATGATTGTTCTCCCAGCTGATGAATTATGTGGATCGAGTAAACAAATTTTCCTAATCTTTCTGTTCAAGCGCCATCTAC  1.08 RPM ratio (pull-down/input)
30. GATGATTGTTCTCCCAGCTGATGAATTTGCTACTTCGAGTAAACAAATTTTCCTAATCTTTCTGTTCAAGCGCCATCTAC  1.09 RPM ratio (pull-down/input)
31. GATGATTGTTCTCCCAGCTGATGAATTTATCCGTTCGAGTAAACAAATTTTCCTAATCTTTCTGTTCAAGCGCCATCTAC  1.12 RPM ratio (pull-down/input)
32. GATGATTGTTCTCCCAGCTGATGAATTATGTAACTCGAGTAAACAAATTTTCCTAATCTTTCTGTTCAAGCGCCATCTAC  1.15 RPM ratio (pull-down/input)
33. GATGATTGTTCTCCCAGCTGATGAATTTATCGTCTCGAGTAAACAAATTTTCCTAATCTTTCTGTTCAAGCGCCATCTAC  1.17 RPM ratio (pull-down/input)
34. GATGATTGTTCTCCCAGCTGATGAATTGGTGCAATCGAGTAAACAAATTTTCCTAATCTTTCTGTTCAAGCGCCATCTAC  1.22 RPM ratio (pull-down/input)
35. GATGATTGTTCTCCCAGCTGATGAATTGCGTTGTTCGAGTAAACAAATTTTCCTAATCTTTCTGTTCAAGCGCCATCTAC  1.24 RPM ratio (pull-down/input)
36. GATGATTGTTCTCCCAGCTGATGAATTTACTCGATCGAGTAAACAAATTTTCCTAATCTTTCTGTTCAAGCGCCATCTAC  1.31 RPM ratio (pull-down/input)
37. GATGATTGTTCTCCCAGCTGATGAATTTAGTGTATCGAGTAAACAAATTTTCCTAATCTTTCTGTTCAAGCGCCATCTAC  1.33 RPM ratio (pull-down/input)
38. GATGATTGTTCTCCCAGCTGATGAATTGTGTATGTCGAGTAAACAAATTTTCCTAATCTTTCTGTTCAAGCGCCATCTAC  1.62 RPM ratio (pull-down/input)
39. GATGATTGTTCTCCCAGCTGATGAATTTATTGTGTCGAGTAAACAAATTTTCCTAATCTTTCTGTTCAAGCGCCATCTAC  1.88 RPM ratio (pull-down/input)
40. GATGATTGTTCTCCCAGCTGATGAATTATAAATATCGAGTAAACAAATTTTCCTAATCTTTCTGTTCAAGCGCCATCTAC  2.01 RPM ratio (pull-down/input)
